From a collection of fitness landscapes (doi:10.1038/s41467-024-54723-y)
Over roughly 18,000 sequences, “TetR repression strength (sort-seq, GFP reporter)” has its median near 0.23; the highest 2% begin near 0.68. This is one part of the list.

Biological target: TetR (class B, Tn10) (UniProt P04483)
Assay: TetR repression strength (sort-seq, GFP reporter) (relative to tetO2 = 1); higher = stronger repression
Conditions: E. coli
In short: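 Three independent transformations of E. coli SIG10-MAX were made with a low-copy plasmid library randomizing eight operator positions between a constitutive promoter and sfGFP, with constitutive TetR. Following 5 h at 37 °C in LB plus 50 µg/mL chloramphenicol, 10^6 cells went through FACS into 13 fluorescence bins, and each bin was sequenced by Illumina. Repression strength was defined as the top bin index plus one minus the read-weighted mean bin, divided by the unaltered operator's value. Averages included only members reaching ≥30 reads in all replicates with a CV ≤0.5.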

Chain of UniProt P04483 (P04483 whole entry): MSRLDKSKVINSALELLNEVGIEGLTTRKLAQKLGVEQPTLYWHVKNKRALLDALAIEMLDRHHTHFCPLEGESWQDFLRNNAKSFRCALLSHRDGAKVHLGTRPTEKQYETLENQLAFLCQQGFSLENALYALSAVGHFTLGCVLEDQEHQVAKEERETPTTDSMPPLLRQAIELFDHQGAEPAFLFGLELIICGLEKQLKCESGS

Row | Sequence | TetR repression strength
1 | TCCCTTAGAGTACTTGAGA | 0.342
2 | TCCCATTCAGTACTTGAGA | 0.184
3 | TCCCAGTGAGTGTCGGAGA | 0.183
4 | TCCCTGGGAGTCTCGGAGA | 0.277
5 | TCCCCGGCAGTACCCGAGA | 0.181
6 | TCCCTATGAGTGGTGGAGA | 0.119
7 | TCCCGTATAGTTTTGGAGA | 0.119
8 | TCCCTACTAGTTAAGGAGA | 0.0241
9 | TCCCACTGAGTTGAGGAGA | 0.219
10 | TCCCCGACAGTTGTAGAGA | 0.415
11 | TCCCTTTTAGTCGGGGAGA | 0.179
12 | TCCCCTGGAGTAGGGGAGA | 0.302
13 | TCCCCCACAGTTACCGAGA | 0.223
14 | TCCCGTCCAGTGGTCGAGA | 0.143
15 | TCCCTTTAAGTGCCCGAGA | 0.588
16 | TCCCCAAGAGTAAAGGAGA | 0.155
17 | TCCCCATGAGTGTAGGAGA | 0.182
18 | TCCCCTTTAGTTGGGGAGA | 0.239
19 | TCCCTGTGAGTCACGGAGA | 0.0821
20 | TCCCGCGAAGTAGATGAGA | 0.319
21 | TCCCTTGTAGTATGTGAGA | 0.133
22 | TCCCTTCCAGTTGTCGAGA | 0.355
23 | TCCCGCGTAGTGTACGAGA | 0.108
24 | TCCCATCAAGTAGGGGAGA | 0.0957
25 | TCCCCACCAGTCGGAGAGA | 0.22
26 | TCCCGGAGAGTGCGGGAGA | 0.143

Row | Sequence | TetR repression strength
27 | TCCCTTCCAGTTGTGGAGA | 0.344
28 | TCCCGCGTAGTGGCAGAGA | 0.329
29 | TCCCGTTGAGTTGCTGAGA | 0.157
30 | TCCCTCTGAGTTGTCGAGA | 0.461
31 | TCCCGAGGAGTAGGAGAGA | 0.14
32 | TCCCGGCAAGTATTTGAGA | 0.355
33 | TCCCGCCGAGTAGTCGAGA | 0.18
34 | TCCCCACAAGTTTGTGAGA | 0.143
35 | TCCCGAAGAGTAGTCGAGA | 0.321
36 | TCCCCGCAAGTGGAGGAGA | 0.15
37 | TCCCCAGGAGTATGTGAGA | 0.378
38 | TCCCAGCGAGTAGGCGAGA | 0
39 | TCCCAAGAAGTGTAAGAGA | 0.181
40 | TCCCGAAGAGTTGGAGAGA | 0.575
41 | TCCCGTGGAGTTATCGAGA | 0.213
42 | TCCCTGAGAGTTGAGGAGA | 0.54
43 | TCCCAGGCAGTGGTGGAGA | 0.161
44 | TCCCTTTCAGTTGGAGAGA | 0.245
45 | TCCCCCGAAGTGCCTGAGA | 0.407
46 | TCCCAAATAGTAGGAGAGA | 0.236
47 | TCCCCCTCAGTTTAAGAGA | 0.296
48 | TCCCATCGAGTGTATGAGA | 0.219
49 | TCCCGTGTAGTTGCTGAGA | 0.132
50 | TCCCTTGTAGTTCACGAGA | 0.309
51 | TCCCGTACAGTTTTAGAGA | 0.269
52 | TCCCTTAAAGTACTAGAGA | 0

Row | Sequence | TetR repression strength
53 | TCCCGCGTAGTGCTTGAGA | 0.177
54 | TCCCGCGTAGTACATGAGA | 0.246
55 | TCCCGTACAGTGTACGAGA | 0.0921
56 | TCCCGCACAGTGTTTGAGA | 0.322
57 | TCCCCCGGAGTGCGTGAGA | 0.145
58 | TCCCAGGAAGTATCGGAGA | 0.147
59 | TCCCAGTCAGTTCCAGAGA | 0.133
60 | TCCCCTCCAGTCCTAGAGA | 0.386
61 | TCCCCATAAGTACCGGAGA | 0.034
62 | TCCCAGGCAGTTACCGAGA | 0.14
63 | TCCCTGCAAGTTCGAGAGA | 0.282
64 | TCCCATTGAGTGGTAGAGA | 0.466
65 | TCCCAACGAGTCGACGAGA | 0.696
66 | TCCCTTCGAGTCGATGAGA | 0.299
67 | TCCCGCATAGTCGAGGAGA | 0.274
68 | TCCCAGTGAGTGGGCGAGA | 0.145
69 | TCCCCCGGAGTGAAAGAGA | 0.501
70 | TCCCGAGTAGTTGGGGAGA | 0.166
71 | TCCCGCCGAGTGCTCGAGA | 0.0648
72 | TCCCACATAGTGACCGAGA | 0.223
73 | TCCCCGGGAGTTCGCGAGA | 0.184
74 | TCCCCGATAGTCTGAGAGA | 0.187
75 | TCCCTGACAGTCGTTGAGA | 0.115
76 | TCCCCTTAAGTGTCGGAGA | 0.126
77 | TCCCGTTTAGTGATAGAGA | 0.523
78 | TCCCCCTTAGTGGACGAGA | 0.353

Row | Sequence | TetR repression strength
79 | TCCCAACAAGTCAGGGAGA | 0.351
80 | TCCCTGTGAGTTGTCGAGA | 0.258
81 | TCCCTCGCAGTCACGGAGA | 0.0292
82 | TCCCCGTAAGTGGATGAGA | 0.0225
83 | TCCCATCAAGTTCGGGAGA | 0.282
84 | TCCCATAAAGTGGCGGAGA | 0.133
85 | TCCCTTATAGTGGTCGAGA | 0.22
86 | TCCCTGAAAGTCTCGGAGA | 0.0239
87 | TCCCTGGTAGTTCTCGAGA | 0.315
88 | TCCCTCGCAGTACGTGAGA | 0.126
89 | TCCCTTGTAGTTGACGAGA | 0.0842
90 | TCCCTACCAGTTGCTGAGA | 0.309
91 | TCCCTGTTAGTTCTGGAGA | 0.166
92 | TCCCTGGAAGTTTTGGAGA | 0.139
93 | TCCCCATAAGTCCTTGAGA | 0.415
94 | TCCCGCGGAGTCCAAGAGA | 0.101
95 | TCCCAGGTAGTGGACGAGA | 0.46
96 | TCCCTGAGAGTCGGTGAGA | 0.3
97 | TCCCGTTGAGTAGCAGAGA | 0.367
98 | TCCCACTTAGTGATAGAGA | 0.569
99 | TCCCTTAAAGTAACTGAGA | 0.217
100 | TCCCTTGGAGTGGGAGAGA | 0.158
101 | TCCCCTGAAGTGGCAGAGA | 0.204
102 | TCCCATAAAGTTGCGGAGA | 0.142
103 | TCCCTACCAGTTCCTGAGA | 0.29
104 | TCCCTGGGAGTGGAGGAGA | 0.227

Row | Sequence | TetR repression strength
105 | TCCCGATCAGTGGTGGAGA | 0.426
106 | TCCCGGTCAGTCTCCGAGA | 0.281
107 | TCCCGGCGAGTGATGGAGA | 0.29
108 | TCCCAGCGAGTGACGGAGA | 0.207
109 | TCCCCGACAGTTAGAGAGA | 0.458
110 | TCCCTTGAAGTGGGTGAGA | 0.165
111 | TCCCTGTGAGTCGCGGAGA | 0.327
112 | TCCCGCACAGTAGGTGAGA | 0.298
113 | TCCCGGCGAGTGGGTGAGA | 0.23
114 | TCCCTGTAAGTGATCGAGA | 0.379
115 | TCCCAAGCAGTGTGCGAGA | 0.113
116 | TCCCCAGTAGTGGTGGAGA | 0.198
117 | TCCCGAACAGTTGTGGAGA | 0.231
118 | TCCCTCACAGTTTAGGAGA | 0.271
119 | TCCCGTGAAGTATCGGAGA | 0.0691
120 | TCCCGCGTAGTTAAAGAGA | 0.327
121 | TCCCAAACAGTATGTGAGA | 0.164
122 | TCCCTAGGAGTGGGTGAGA | 0.195
123 | TCCCTAGGAGTGGAGGAGA | 0.144
124 | TCCCCCCGAGTGAGGGAGA | 0.13
125 | TCCCAAGTAGTGATAGAGA | 0.434
126 | TCCCATATAGTGAACGAGA | 0.332
127 | TCCCAAGCAGTGAATGAGA | 0.218
128 | TCCCGAGCAGTCAGAGAGA | 0.36
129 | TCCCGGGGAGTACGGGAGA | 0.233
130 | TCCCGGTGAGTCGATGAGA | 0.185
